Where “and” joins values, the source holds several entries; their conditions need not be identical. Equal values may be shown once. Screen size: about 220,000 compounds; about 5,700 (2.6%) were called active. Inconclusive means that the source gave no clear call. Such entries were picked first, then a sample of the others. The call rests on the fitted dose curve; in most records, active means well fitted inhibition curve with a large enough effect; inconclusive means small, poorly fitted or top-dose-only effect; inactive means no such curve, though single readings can be large or run the other way. Where the call is inconclusive, the potency comes from a doubtful curve fit.
molecular target: Lysine-specific demethylase 5B (Homo sapiens) (UniProt Q9UGL1); assay: Primary screen for KDM5B Histone Demethylases FDH-coupled qHTS; details: FDH-coupled NADH fluorescence (FDH is formaldehyde dehydrogenase); activity change, negative = inhibition: at 57.7 µM (top of the series) unless noted; further: nearly all actives have a fitted effect of over 70% in size; on activity change, negative = inhibition: 0% is about no effect
UniProt Q9UGL1, sequence (Q9UGL1 whole entry, looked up): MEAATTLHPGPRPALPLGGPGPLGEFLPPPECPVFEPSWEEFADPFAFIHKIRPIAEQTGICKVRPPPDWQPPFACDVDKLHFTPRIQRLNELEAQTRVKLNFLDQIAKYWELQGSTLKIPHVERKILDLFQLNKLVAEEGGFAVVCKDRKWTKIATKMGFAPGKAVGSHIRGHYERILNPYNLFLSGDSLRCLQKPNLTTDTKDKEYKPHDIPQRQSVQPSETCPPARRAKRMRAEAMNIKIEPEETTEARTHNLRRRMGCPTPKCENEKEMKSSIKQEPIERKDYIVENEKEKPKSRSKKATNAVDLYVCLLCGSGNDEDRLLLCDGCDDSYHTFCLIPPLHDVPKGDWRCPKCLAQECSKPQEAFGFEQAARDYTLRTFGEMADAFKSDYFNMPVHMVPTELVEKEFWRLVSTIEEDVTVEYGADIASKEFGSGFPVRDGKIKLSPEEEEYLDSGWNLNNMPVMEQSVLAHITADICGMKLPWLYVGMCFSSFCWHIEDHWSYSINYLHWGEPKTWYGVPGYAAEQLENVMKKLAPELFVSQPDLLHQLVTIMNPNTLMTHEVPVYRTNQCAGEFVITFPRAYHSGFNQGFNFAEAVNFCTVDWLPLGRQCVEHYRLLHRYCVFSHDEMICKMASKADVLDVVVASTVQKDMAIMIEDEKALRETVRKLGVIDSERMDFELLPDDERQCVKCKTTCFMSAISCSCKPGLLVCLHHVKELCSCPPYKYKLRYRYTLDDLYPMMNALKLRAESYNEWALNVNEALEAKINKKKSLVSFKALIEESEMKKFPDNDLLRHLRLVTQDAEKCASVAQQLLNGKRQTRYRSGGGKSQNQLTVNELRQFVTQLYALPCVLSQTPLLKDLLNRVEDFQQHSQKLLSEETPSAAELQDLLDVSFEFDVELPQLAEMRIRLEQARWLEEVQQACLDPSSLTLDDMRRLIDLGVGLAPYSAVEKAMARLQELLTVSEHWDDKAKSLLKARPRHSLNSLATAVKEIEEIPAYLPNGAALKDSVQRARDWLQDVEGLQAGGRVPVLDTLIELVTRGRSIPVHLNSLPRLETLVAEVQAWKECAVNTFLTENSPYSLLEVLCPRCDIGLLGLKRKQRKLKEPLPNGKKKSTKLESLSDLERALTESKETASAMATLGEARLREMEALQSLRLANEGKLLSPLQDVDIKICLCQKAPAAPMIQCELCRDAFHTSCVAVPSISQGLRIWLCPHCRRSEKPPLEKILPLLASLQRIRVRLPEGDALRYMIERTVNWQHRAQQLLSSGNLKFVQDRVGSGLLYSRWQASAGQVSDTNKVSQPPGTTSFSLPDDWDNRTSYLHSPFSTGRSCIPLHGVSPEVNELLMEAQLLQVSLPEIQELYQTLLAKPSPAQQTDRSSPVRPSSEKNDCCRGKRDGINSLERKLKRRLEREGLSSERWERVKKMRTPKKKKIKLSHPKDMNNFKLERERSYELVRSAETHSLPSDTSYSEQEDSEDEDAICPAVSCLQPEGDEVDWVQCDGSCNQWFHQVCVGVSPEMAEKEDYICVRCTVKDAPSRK
In short: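 Coupled FDH/NAD⁺ fluorescence readout. KDM5BΔAP 200 nM final; compound titration, 10 min RT preincubation; substrate mix 12.5 µM H3K4me3, 25 µM 2-OG, 50 µM Fe(II), 100 µM ascorbate, 0.25 mM NAD⁺, 0.25 U/mL FDH; ΔRFU over 30 min.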
Potency means the concentration at half of the fitted maximal effect; tags describe the fitted curve by direction and shape.

**Q.** How did the Potency turn out when CC(C)C[C@@H]1N[C@H](C(=O)NCCN(C)C)Cc2cn(Cc3ccncc3)c3cccc1c23 was run?
**A.** inconclusive: 35.5 µM [inhibitor, partial curve, poor fit]

**Q.** Which Potency does the source give for Cc1cn2nc(C(=O)N3CCC(NC(=O)c4cccc(N(C)C)c4)CC3)cc2c(=O)[nH]1 here?
**A.** inconclusive: 25.1 µM [inhibitor, partial curve, poor fit]

**Q.** With COc1ccc(NC(=O)c2ccc3c(c2)C2(CCN(C)C2)CN3Cc2ccccc2)cc1 (stereo not given) as the compound, how does the Potency read?
**A.** inconclusive: 28.2 µM [inhibitor, partial curve]

**Q.** Which “activity change, negative = inhibition” value does the source give for COc1ccc(CNC(=O)c2noc(-c3ccc(C)cc3)n2)cc1OC here?
**A.** inactive: -13.3%

**Q.** Cc1cccc(NC(=O)c2sc3nc4c(cc3c2N)CN(Cc2ccccc2)CC4)c1 was tested. Which Potency did it give?
**A.** inconclusive: 14.1 µM [inhibitor, partial curve, poor fit]

**Q.** With CCN1c2cc(C(=O)N3CCN(C4CCCCC4)CC3)ccc2C(=O)N2CCCCC21 (stereo not given) as the compound, how does the Potency read?
**A.** inconclusive: 22.4 µM [inhibitor, partial curve, poor fit]

**Q.** Cc1c(Cl)c(C(F)(F)F)nn1CC(=O)Nc1ccc(Cl)cc1 was tested. Which “activity change, negative = inhibition” value did it give?
**A.** inactive: 7.16%

**Q.** How did the Potency turn out when C=CCSC1=N/C(=C\c2ccc(SC)cc2)C(=O)S1 was run?
**A.** inconclusive: 35.5 µM [inhibitor, partial curve, poor fit]

**Q.** How did the Potency turn out when O=C(c1ccc(-c2ccc(O)cc2)cc1)N1CCOC2(CNCCOC2)C1 (stereo not given) was run?
**A.** inconclusive: 31.6 µM [inhibitor, partial curve, poor fit]

**Q.** For Cc1ccc(-c2ccc3nnc(CNC(=O)CSc4ccncc4)n3n2)cc1, which Potency is on record?
**A.** active: 28.2 µM

**Q.** CCN1CCc2c(sc(NC(=O)Nc3cccc(Cl)c3)c2C(N)=O)C1 was tested. Which Potency did it give?
**A.** inconclusive: 39.8 µM [inhibitor, single point]

**Q.** CN1CCc2[nH]nc(C(=O)N[C@H](c3ccccn3)C3CC(O)C3)c2C1 (stereo not given in full) was tested. Which Potency did it give?
**A.** inconclusive: 35.5 µM [inhibitor, partial curve, poor fit]

**Q.** Which Potency does the source give for CN(C)C(=O)c1ccc(-c2ccc(N3CCCCCC3)nc2)cc1 here?
**A.** active: 28.2 µM

**Q.** Which “activity change, negative = inhibition” value does the source give for CC(C)CCN1C[C@@H]2[C@H](C1)N(CCOc1ccccc1)C(=O)C(C)(C)[S+]2(=O)[O-] here?
**A.** inactive: -10.5% [at 86.2 µM]

**Q.** Which Potency does the source give for O=C(NC1CCN(c2cc(-c3ccc(F)cc3)[nH]n2)C1)c1ccncc1 (stereo not given) here?
**A.** inconclusive: 17.8 µM [inhibitor, partial curve]

**Q.** Which Potency does the source give for N#CC1=C(N)OC2=C(C(=O)CCC2)C1c1ccc(-c2ccccc2)o1 (stereo not given) here?
**A.** inconclusive: 31.6 µM [inhibitor, single point]

**Q.** With COc1ccc2nc3sc(C(=O)O)cc3cc2c1 as the compound, how does the Potency read?
**A.** inconclusive: 17.8 µM [inhibitor, partial curve, poor fit]

**Q.** How did the Potency turn out when COc1ccc(-c2ccnc3nc(CCc4ccc(OC)c(OC)c4)nn23)c(F)c1 was run?
**A.** inconclusive: 14.1 µM [inhibitor, partial curve, poor fit]

**Q.** With Cc1ccc(CN(C(=O)COc2ccc(C(C)C)cc2)C2CCS(=O)(=O)C2)o1 (stereo not given) as the compound, how does the Potency read?
**A.** inconclusive: 25.1 µM [inhibitor, partial curve, poor fit]

**Q.** Which “activity change, negative = inhibition” value does the source give for O=C(Cc1ccc(F)cc1)N1CCc2nc(-c3ccc(Cl)cc3)nc(-c3ccccc3)c2C1 here?
**A.** inactive: -11.4%

**Q.** With O=C(c1ccccc1)N1CCN(C(=O)c2n[nH]c(=O)c3ccccc23)CC1 as the compound, how does the “activity change, negative = inhibition” value read?
**A.** inactive: 2.36%

**Q.** O=c1oc2ccccc2c(NCc2ccccc2)c1NS(=O)(=O)c1ccccc1F was tested. Which “activity change, negative = inhibition” value did it give?
**A.** inactive: 29.5%

**Q.** With O=C(Nc1ccccc1)N1CC(Oc2ccc(-c3nc(-c4ccccc4)no3)cc2)C1 as the compound, how does the Potency read?
**A.** inconclusive: 15.8 µM [inhibitor, partial curve, poor fit]

**Q.** How did the Potency turn out when COc1ccc(-n2cc(CN3CCCC(CO)C3)c(-c3cccc(F)c3)n2)cc1 (stereo not given) was run?
**A.** active: 35.5 µM

**Q.** For Cc1ccc(CNC(=O)c2nc(-c3ccc(Cl)cc3)n3c2CCCCC3)cc1, which Potency is on record?
**A.** inconclusive: 39.8 µM [inhibitor, single point]

**Q.** For COc1ccc(C(C(=O)NCC2CCCO2)N(Cc2ccccc2)C(=O)c2snc(C(N)=O)c2N)cc1OC (stereo not given), which Potency is on record?
**A.** inconclusive: 35.5 µM [inhibitor, partial curve, poor fit]

**Q.** CC(=O)c1cc(C(C)(C)C)c(O)c(C(C)(C)C)c1 was tested. Which “activity change, negative = inhibition” value did it give?
**A.** inactive: 4.58%

**Q.** Which Potency does the source give for Cc1noc([C@@H]2CN(Cc3ccc[nH]3)C[C@H]2CO)n1 here?
**A.** inconclusive: 7.08 µM [inhibitor, partial curve]

**Q.** COc1cc(-c2cc(C(=O)NCc3ccco3)c3ccccc3n2)cc(OC)c1OC was tested. Which Potency did it give?
**A.** inconclusive: 25.1 µM [inhibitor, partial curve, poor fit]

**Q.** For COc1ccc(Br)cc1C(=O)Nc1ccccc1N1CCCC1, which Potency is on record?
**A.** inconclusive: 28.2 µM [inhibitor, single point]

**Q.** With CCS(=O)(=O)NCC1(COc2ccc(C(F)(F)F)cn2)C[C@@H](O)[C@@H](O)C1 (stereo not given in full) as the compound, how does the Potency read?
**A.** inconclusive: 28.2 µM [inhibitor, partial curve, poor fit]

**Q.** How did the Potency turn out when CCOc1ccccc1NC(=O)c1sc2nc(-c3ccc(OC)cc3)ccc2c1N was run?
**A.** inconclusive: 0.708 µM [inhibitor, full curve, poor fit]

**Q.** For CC1CCN(C(=O)CN(C)CC(=O)Nc2c(Cl)cccc2Cl)CC1, which “activity change, negative = inhibition” value is on record?
**A.** inactive: 1.93%

**Q.** For O=C(c1ccc(N2CC[C@H](O)C2)nc1)N1CCC(Oc2cccnc2)CC1, which Potency is on record?
**A.** inconclusive: 20 µM [inhibitor, partial curve, poor fit]

**Q.** CCC1CCCCN1CCCNC(=O)c1c(O)nc2c(C)cccn2c1=O (stereo not given) was tested. Which Potency did it give?
**A.** inconclusive: 35.5 µM [inhibitor, partial curve, poor fit]

**Q.** With Cn1ccc2c(-c3cc(NCCO)nc(N)n3)ccnc21 as the compound, how does the Potency read?
**A.** active: 28.2 µM

**Q.** O=C(CCSCc1ccccc1F)N1CCN(c2ccc(Cl)cc2)CC1 was tested. Which Potency did it give?
**A.** inconclusive: 14.1 µM [inhibitor, partial curve, poor fit]

**Q.** For O=C1c2cnc(-c3ccccc3C(F)(F)F)nc2OCCN1Cc1ccccc1, which “activity change, negative = inhibition” value is on record?
**A.** inactive: -4.56% [at 86.2 µM]

**Q.** Which Potency does the source give for Cn1c(=O)cc(C(=O)N/N=C/c2ccc(Cl)cc2)[nH]c1=O here?
**A.** inconclusive: 25.1 µM [inhibitor, partial curve, poor fit]

**Q.** For COc1ccc(F)c(CN2CCCC3(CCN(c4cc(C)nc(N)n4)C3)C2)c1 (stereo not given), which Potency is on record?
**A.** inconclusive: 35.5 µM [inhibitor, partial curve, poor fit]

**Q.** For CCc1noc(-c2ccn3c(CNC(=O)Cc4cccc(OC)c4)nnc3c2)n1, which Potency is on record?
**A.** active: 22.4 µM

**Q.** For COCCn1c(C)cnc1CCN, which Potency is on record?
**A.** inconclusive: 12.6 µM [inhibitor, partial curve]

**Q.** With CC(=O)NCc1ccc(-c2nc(-c3cccc(C)c3)sc2C)s1 as the compound, how does the Potency read?
**A.** inconclusive: 28.2 µM [inhibitor, single point]

**Q.** How did the Potency turn out when O=C(N[C@H]1CCN2C(=O)c3cc(-c4ccsc4)ccc3NC(=O)[C@@H]2C1)c1cccs1 was run?
**A.** active: 22.4 µM

**Q.** How did the “activity change, negative = inhibition” value turn out when CC(C#N)(NC(=O)COc1ccccc1C(F)(F)F)C1CC1 (stereo not given) was run?
**A.** inactive: 2.72%

**Q.** For Cc1ccc(S(=O)(=O)N2CCc3cc(C(=O)Nc4ccc(C)c(C)c4)ccc32)cc1, which Potency is on record?
**A.** inconclusive: 25.1 µM [inhibitor, partial curve, poor fit]

**Q.** Which Potency does the source give for O=c1cc(-c2ccccc2)nc2cc(-c3ccc(F)cc3)[nH]n12 here?
**A.** inconclusive: 1.26 µM [inhibitor, full curve, poor fit] and inconclusive: 28.2 µM [inhibitor, partial curve, poor fit]

**Q.** Which Potency does the source give for N#Cc1nc(-c2ccccc2F)oc1NCCN1CCOCC1 here?
**A.** inconclusive: 28.2 µM [inhibitor, partial curve, poor fit]

**Q.** For CCOc1ccc(C(=O)N2CCC[C@H]2c2nc(-c3ccc(OC)c(OC)c3)no2)cc1, which Potency is on record?
**A.** inconclusive: 3.98 µM [inhibitor, full curve]

**Q.** For Cc1ccc(C(=O)NC(NC(=O)c2ccccc2)C(Cl)Cl)cc1 (stereo not given), which “activity change, negative = inhibition” value is on record?
**A.** inactive: 15%

**Q.** With Cc1cccc(N(C)C(=O)CN(C)S(=O)(=O)c2ccc3[nH]c4c(c3c2)CCCC4)c1 as the compound, how does the Potency read?
**A.** inconclusive: 31.6 µM [inhibitor, single point]

**Q.** Which “activity change, negative = inhibition” value does the source give for CC(Nc1ccc(NS(C)(=O)=O)cc1)C(=O)Nc1ccc(Cl)cn1 (stereo not given) here?
**A.** inactive: 12.3%

**Q.** For CN1c2cc(C(=O)Nc3cccc(Br)c3)ccc2C(=O)N2CCCCCC21 (stereo not given), which Potency is on record?
**A.** inconclusive: 31.6 µM [inhibitor, partial curve, poor fit]

**Q.** How did the Potency turn out when CCOc1ccc2c(C)c(C(=O)N3CC[C@](C)(O)[C@H](C)C3)oc2c1OCC was run?
**A.** inconclusive: 25.1 µM [inhibitor, single point]

**Q.** For O=C(/C=C/c1ccc(-c2ccc(F)cc2)s1)N1CCS(=O)CC1, which Potency is on record?
**A.** inconclusive: 39.8 µM [inhibitor, single point]

**Q.** How did the Potency turn out when CCn1c(CO)nnc1C1CC(NC(=O)c2cnc3sccn3c2=O)C1 (stereo not given) was run?
**A.** active: 28.2 µM

**Q.** CN1CC(=O)N(C2CCCNCC2)Cc2c(NCCCn3ccnc3)ncnc21 (stereo not given) was tested. Which Potency did it give?
**A.** inconclusive: 44.7 µM [inhibitor, partial curve, poor fit]

**Q.** With CS(=O)(=O)NCCC(=O)O as the compound, how does the “activity change, negative = inhibition” value read?
**A.** inactive: 15.4%

**Q.** With COc1ccc2c(c1)-c1nc(NC(=O)c3ccccc3F)sc1CC2 as the compound, how does the Potency read?
**A.** inconclusive: 35.5 µM [inhibitor, partial curve, poor fit]

**Q.** Which Potency does the source give for COc1ccc2cnn(CC(=O)N(C)Cc3ccccc3)c(=O)c2c1OC here?
**A.** inconclusive: 31.6 µM [inhibitor, partial curve, poor fit]

**Q.** With CCn1c(=O)cc(OCC(=O)NCc2ccccc2Cl)c2ccccc21 as the compound, how does the Potency read?
**A.** inconclusive: 3.55 µM [inhibitor, partial curve, poor fit]

**Q.** For COCCN(Cc1ccccn1)Cc1cc(=O)c2cc(C)cc(C)c2[nH]1, which Potency is on record?
**A.** active: 28.2 µM

**Q.** For Cc1ccccc1-c1ccc(C(=O)NCCCn2ccnc2C(C)C)cn1, which “activity change, negative = inhibition” value is on record?
**A.** inactive: -17.6%

**Q.** Which “activity change, negative = inhibition” value does the source give for Cc1cc(Cl)ccc1NC(=O)CSc1ncnc2ccccc12 here?
**A.** inactive: 12.5%

**Q.** For CCC1(C)CC(CC(=O)OC(C)CN(C)C)(c2ccccc2)CCO1 (stereo not given), which “activity change, negative = inhibition” value is on record?
**A.** inactive: 32.5%

Reference: PubChem BioAssay AID1347165 (National Center for Advancing Translational Sciences (NCATS), 2019)
